Test results reported in PubChem BioAssay AID1159614 (National Center for Advancing Translational Sciences (NCATS), 2016).
Hit rate of the full screen: of about 45,000 compounds, about 65 (0.1%) were called active. Calls come from the whole dose curve; as a rule, active = well fitted activation curve with a large enough effect; inconclusive = small, poorly fitted or top-dose-only effect; inactive = no such curve, though single readings can be large or run the other way. The list shows a part of the results.

The compounds below were run against Galactocerebrosidase (Homo sapiens) (UniProt P54803) (assay: A Novel Cell-Based Assay to Identify Small Molecules for B -Galactocerebrosidase). Conditions: 145M-Twi-hGALC-G270D cells (Twitcher mouse brain line with human GALC G270D), HMU-beta-Gal fluorescence, 48 h; series mostly up to 57.5 µM; activation: at the top concentration.
Procedure, shortened: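 Mutant human GALC (G270D), stably expressed in a Twitcher mouse brain cell line lacking endogenous GALC, is measured in live-treated cells via 6-hexadecanoylamino-4-methylumbelliferyl-β-galactoside hydrolysis (0.1 mM final, pH 5.2) with fluorescent detection.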
Note: 0% is about no effect; nearly all actives have a fitted effect of over 65% in size.

UniProt P54803, sequence (P54803 whole entry, looked up): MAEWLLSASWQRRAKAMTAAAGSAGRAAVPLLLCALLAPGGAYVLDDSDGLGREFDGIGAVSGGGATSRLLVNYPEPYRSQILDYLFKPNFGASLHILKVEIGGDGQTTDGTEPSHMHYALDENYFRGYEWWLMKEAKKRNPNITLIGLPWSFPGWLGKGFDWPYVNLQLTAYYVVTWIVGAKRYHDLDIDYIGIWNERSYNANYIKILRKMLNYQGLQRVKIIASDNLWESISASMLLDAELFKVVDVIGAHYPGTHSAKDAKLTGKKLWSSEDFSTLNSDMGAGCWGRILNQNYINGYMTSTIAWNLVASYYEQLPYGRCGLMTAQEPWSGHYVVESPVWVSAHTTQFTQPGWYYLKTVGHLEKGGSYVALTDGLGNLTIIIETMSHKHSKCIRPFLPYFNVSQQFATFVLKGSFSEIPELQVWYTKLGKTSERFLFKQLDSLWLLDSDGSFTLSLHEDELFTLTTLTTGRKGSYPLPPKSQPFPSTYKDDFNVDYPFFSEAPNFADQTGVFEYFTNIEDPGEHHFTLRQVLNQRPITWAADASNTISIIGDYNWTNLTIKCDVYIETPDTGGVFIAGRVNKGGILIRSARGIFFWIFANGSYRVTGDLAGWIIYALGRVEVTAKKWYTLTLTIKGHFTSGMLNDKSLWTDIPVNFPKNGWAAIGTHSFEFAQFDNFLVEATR

Question: `N=c1nc(N2CCCCC2)cc(N)n1O` was tested. Which “activation” value did it give?
Answer: inactive: -12.6%

Question: `CCc1nn2c(-c3ccco3)ccnc2c1-c1ccccc1` was tested. Which “activation” value did it give?
Answer: inactive: -7.78%

Question: Which “activation” value does the source give for `Cc1cc(NC(=O)C2CCC(CNS(=O)(=O)c3ccc(Br)s3)CC2)ccc1Br` (stereo unspecified) here?
Answer: inactive: -13.2%

Question: Which “activation” value does the source give for `COc1cc(OC)c(NC(=O)c2cc3c(s2)-c2ccc(Cl)cc2SC3)cc1Cl` here?
Answer: inactive: -2.45%

Question: `Cc1cccc(N2CCN(C(=O)C3CCN(Cc4nc(-c5ccc(Cl)cc5)oc4C)CC3)CC2)c1C` was tested. Which “activation” value did it give?
Answer: inactive: -6.85%

Question: For `Cn1c(C(=O)NCc2ccc(F)cc2)cc2cc(S(=O)(=O)N3CCCCC3)ccc21`, which “activation” value is on record?
Answer: inactive: -15.9%

Question: Which “activation” value does the source give for `COc1ccc(NC(=O)CSc2nc(-c3ccc(OC)cc3)cc(=O)[nH]2)cc1` here?
Answer: inactive: -14.5%

Question: With `CCOC(=O)c1cc(S(=O)(=O)Nc2ccc(OC(F)(F)F)cc2)[nH]n1` as the compound, how does the “activation” value read?
Answer: inactive: -19.2%

Question: `CCC1CN(C(=O)N2CCC(C(=O)NCc3cc(OC)ccc3OC)CC2)c2ccccc2O1` (stereo unspecified) was tested. Which “activation” value did it give?
Answer: inactive: -17.8%

Question: For `Cc1ccc(-n2nc(C(=O)NCCc3cccc(C)c3)c3c4ccccc4n(C)c3c2=O)cc1`, which “activation” value is on record?
Answer: inactive: -7.87%

Question: Which “activation” value does the source give for `COc1ccc(OC)c(CNC(=O)c2cc(-c3ccc(Cl)s3)nc3ccccc23)c1` here?
Answer: inactive: 2.62%

Question: Which “activation” value does the source give for `COc1cc(-c2nc3n(n2)C(c2ccc(F)cc2)C(C(N)=O)=C(C)N3)cc(OC)c1OC` (stereo unspecified) here?
Answer: inactive: -16.5%

Question: `COc1ccccc1NC(=O)c1oc2ccccc2c1NC(=O)c1ccc(S(=O)(=O)N(C)C)cc1` was tested. Which “activation” value did it give?
Answer: inactive: -4.47%

Question: With `O=C(NCc1ccccc1Cl)c1cnc(N2CCCCC2)c2ccccc12` as the compound, how does the “activation” value read?
Answer: inactive: 9.97%

Question: How did the “activation” value turn out when `CCN(C(=O)Cn1c(SCC(=O)NCc2ccccc2)nc2ccccc21)c1cccc(C)c1` was run?
Answer: inactive: -11.6%

Question: For `O=C(Nc1cccc(Cl)c1Cl)c1cc2nc(-c3ccc4c(c3)OCO4)cc(C(F)(F)F)n2n1`, which “activation” value is on record?
Answer: inactive: -16.4%

Question: With `Cc1cccn2c(Nc3ccc4c(c3)OCCO4)c(-c3ccc(Br)o3)nc12` as the compound, how does the “activation” value read?
Answer: inactive: -10.1%

Question: With `COc1ccc(-c2cc3ccc(O)c(CN4CCN(CCO)CC4)c3oc2=O)cc1OC` as the compound, how does the “activation” value read?
Answer: inactive: -13.5%

Question: Which “activation” value does the source give for `Cc1ccc(N2C(=O)c3oc4cc(C)c(C)cc4c(=O)c3C2c2cccc(O)c2)nc1` (stereo unspecified) here?
Answer: inactive: -13.5%

Question: Which “activation” value does the source give for `CCCN(CCC)C(=O)c1c[nH]c2ccc(S(=O)(=O)Nc3cc(C)cc(C)c3)cc2c1=O` here?
Answer: inactive: -26.6%

Question: `Cc1ccc(NC(=O)c2nc(S(=O)(=O)Cc3cccc(C)c3)ncc2Cl)cc1` was tested. Which “activation” value did it give?
Answer: inactive: -22.3%

Question: With `Cc1ccc(CNC(=O)c2cc(C3CC3)nc3c2c(C)nn3-c2cccc(Cl)c2C)cc1` as the compound, how does the “activation” value read?
Answer: inactive: -16.9%

Question: `Cc1ccc(C)c(NC(=O)CSc2nnc(C)n3c2cc2occc23)c1` was tested. Which “activation” value did it give?
Answer: inactive: -12.9%

Question: Which “activation” value does the source give for `COc1ccc(OC)c(-c2noc(N3CCN(c4cc(Cl)ccc4C)CC3)n2)c1` here?
Answer: inactive: 14.6%

Question: With `C[C@@H]1CN(c2c(F)c(F)c3c(=O)c(C(=O)O)cn(C4CC4)c3c2F)C[C@H](C)N1` as the compound, how does the “activation” value read?
Answer: inactive: -20% [at 23.8 µM]

Question: `CCC1CCCCN1CCCNC(=O)c1ccc2c(c1)sc1nc(-c3ccc(F)cc3)cn12` (stereo unspecified) was tested. Which “activation” value did it give?
Answer: inactive: -10.3%

Question: For `Cc1cc(C)cc(NC(=O)C(=O)NCC(c2cccnc2)N2CCc3ccccc32)c1` (stereo unspecified), which “activation” value is on record?
Answer: inactive: -15.1%

Question: How did the “activation” value turn out when `Cn1c(=O)c2sccc2n2c(CCC(=O)Nc3ccc(F)cc3)nnc12` was run?
Answer: inactive: -13.8%

Question: Which “activation” value does the source give for `COc1cccc(C(=O)c2sc(Nc3ccc(F)c(Cl)c3)nc2N)c1` here?
Answer: inactive: -37.4%

Question: Which “activation” value does the source give for `CCC(C(=O)OC)n1nnc2sc(-c3ccccc3)cc2c1=O` (stereo unspecified) here?
Answer: inactive: -10%

Question: With `COc1ccc2c(c1)c(=O)c(C(=O)c1ccc(C)cc1)cn2Cc1ccccc1F` as the compound, how does the “activation” value read?
Answer: inactive: -5.05%

Question: For `CCOC(=O)c1ccc(CN(Cc2ccc(Br)cc2)S(=O)(=O)c2cccc(C(F)(F)F)c2)cc1`, which “activation” value is on record?
Answer: inactive: -0.868%

Question: With `O=S(=O)(Nc1cccc(-c2ccc(N3CCOCC3)nn2)c1)c1cc(C(F)(F)F)ccc1Cl` as the compound, how does the “activation” value read?
Answer: inactive: -7.32%

Question: With `COc1ccccc1NC(=O)CN1CCN(CC(=O)Nc2ccc(F)c(F)c2)CC1` as the compound, how does the “activation” value read?
Answer: inactive: -12.5%

Question: `COc1ccc(C2c3c(-c4ccccc4O)n[nH]c3C(=O)N2CCc2ccccc2)cc1` (stereo unspecified) was tested. Which “activation” value did it give?
Answer: inactive: -5.99%

Question: How did the “activation” value turn out when `COC(=O)c1ccc(Cl)cc1NC(=O)Nc1nnc(N(C)Cc2ccccc2)s1` was run?
Answer: inactive: -9%

Question: With `CN(c1ccccc1)C(CNS(=O)(=O)c1ccccc1)c1ccccc1` (stereo unspecified) as the compound, how does the “activation” value read?
Answer: inactive: -8.19%

Question: Which “activation” value does the source give for `O=C(CN1C(=O)C2CCCCN2c2ccc(C(=O)N3CCCC3)cc21)NCc1ccccc1F` (stereo unspecified) here?
Answer: inactive: -12.6%

Question: With `CCCCN(CC)CCNc1ncnc2onc(-c3ccc(Cl)cc3)c12` as the compound, how does the “activation” value read?
Answer: inactive: 3.96%

Question: With `Cc1ccc(N2C(=O)CS(=O)(=O)C23C(=O)N(Cc2ccccc2F)c2ccccc23)cc1Cl` (stereo unspecified) as the compound, how does the “activation” value read?
Answer: inactive: -12%

Question: `O=C(COc1ccccc1Cl)Nc1ccccc1OCc1cc(=O)n2ccccc2n1` was tested. Which “activation” value did it give?
Answer: inactive: 4.49%

Question: For `CNS(=O)(=O)c1cn(CC(=O)N2CCN(c3ccc(C)cc3C)CC2)cc1S(=O)(=O)NC`, which “activation” value is on record?
Answer: inactive: -10.7%

Question: How did the “activation” value turn out when `CC(C)COc1ccc(Nc2ncnc3ccc(Br)cc23)cc1` was run?
Answer: inactive: 29.3%

Question: For `COc1ccc(Cc2nnc(C(=O)NCCCN3CCN(c4ccccc4F)CC3)o2)cc1OC`, which “activation” value is on record?
Answer: inactive: -11.6%

Question: With `Cc1cccc(NC(=O)NC2COc3ccccc3C2)c1C` (stereo unspecified) as the compound, how does the “activation” value read?
Answer: inactive: -13.6%

Question: How did the “activation” value turn out when `Cc1ccc(CN(Cc2ccco2)C(=O)c2cccc(C)c2)cc1` was run?
Answer: inactive: -12.9%

Question: With `CNS(=O)(=O)c1cn(CC(=O)Nc2cccc(C(F)(F)F)c2)cc1S(=O)(=O)NC` as the compound, how does the “activation” value read?
Answer: inactive: -13.8%

Question: `COC(=O)c1sccc1S(=O)(=O)N(CC(=O)NCc1ccc(F)cc1)c1ccc(C)c(C)c1` was tested. Which “activation” value did it give?
Answer: inactive: -2.02%

Question: Which “activation” value does the source give for `COc1ccc(CNc2nc(-c3ccco3)nn2C(=O)CC(C)C)cc1` here?
Answer: inactive: -22.6%

Question: For `CCOC(=O)c1[nH]c2ccccc2c1NC(=O)c1ccccc1OC`, which “activation” value is on record?
Answer: inactive: -2.84%

Question: `CCc1ccc(CNC(=O)C(CC)n2nc(C)c3c(C)n(-c4ccccc4)nc3c2=O)cc1` (stereo unspecified) was tested. Which “activation” value did it give?
Answer: inactive: -11.4%

Question: For `Cc1cc(S(=O)(=O)n2ccnc2C(C)C)cc([N+](=O)[O-])c1C`, which “activation” value is on record?
Answer: inactive: 4.58%

Question: `CCCNc1ccc(-c2nc(-c3ccco3)no2)cc1[N+](=O)[O-]` was tested. Which “activation” value did it give?
Answer: inactive: -11.8%

Question: With `O=C(Nc1cc(C(F)(F)F)ccc1Cl)c1ccc2c(c1)CCN2S(=O)(=O)c1ccccc1` as the compound, how does the “activation” value read?
Answer: inactive: -10.7%

Question: `Cc1ccc(CCNC(=O)c2ccc(CNS(=O)(=O)c3ccc(C)cc3)cc2)cc1` was tested. Which “activation” value did it give?
Answer: inactive: -21.6%

Question: `Cc1ccc(Cl)cc1N1CCN(C(=O)c2cn(CC(C)C)c(=O)c3c2c2ccccc2n3C)CC1` was tested. Which “activation” value did it give?
Answer: inactive: -7.56%

Question: Which “activation” value does the source give for `CCOC(=O)c1nc(Nc2ccc(Cl)cc2)c2c(C)noc2n1` here?
Answer: inactive: -13.7%

Question: How did the “activation” value turn out when `COc1cccc(N2CC(NC(=O)C3CCCCC3)CC2=O)c1` (stereo unspecified) was run?
Answer: inactive: -15.1%

Question: With `Cc1cn2c(=O)cc(COc3cccc(NC(=O)c4ccccc4Cl)c3)nc2s1` as the compound, how does the “activation” value read?
Answer: inactive: -12%

Question: For `COc1ccc(N2CCN(C(=O)c3ccc4c(c3)N(Cc3cc(C)ccc3C)C(=O)c3ccccc3S4=O)CC2)cc1` (stereo unspecified), which “activation” value is on record?
Answer: inactive: -16.4%

Question: With `Cc1cc(C)c(Cn2c(=O)n(-c3ccccc3Cl)c(=O)c3c(C)c(C(=O)N(C)C)sc32)c(C)c1` as the compound, how does the “activation” value read?
Answer: inactive: 1.95%
